Source: a collection of fitness landscapes (doi:10.1016/j.celrep.2020.107928)
In all, about 81,000 sequences were measured (“one-hybrid fitness for binding NBS DNA”: median about -0.1, highest 2% from about 0.36 on). This is one part of the list.

B1: Caulobacter ParB omega fusion; a variant is named by its letters at X, in order, B8GW30 (parent)
chain: MESVVVGEPGMSEGRRGLGRGLSALLGEVDAAPAQAPGEQLGGSREAPIEILQRNPDQPRRTFREEDLEDLSNSIREKGVLQPILVRPSPDTAGEYQIVAGERAWRAAQRAGLKTVPIMVRELDDLAVLEIGIIENVQRADLNVLEEALSYKVLMEKFERTQENIAQTIGKSXSHVANXMRLLXLPDEVQSYLVSGELTAXHARAIAAAADPVALAKQIIEGGLSVRETEALARKAPNLSAGKSKGGRPPRVKDTDTQALESDLSSVLGLDVSIDHRGSTGTLTITYATLEQLDDLCNRLTRGI

Variants of: B1
Test: one-hybrid fitness for binding NBS DNA (the Noc-binding site; scaled: cognate 1, non-cognate 0); higher = stronger binding
Details: with NBS DNA site
Summary of the method: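 Fitness is the rescaled log change in variant-to-wild-type read ratio, measured by Illumina sequencing of plasmids before and after bacterial one-hybrid selection. The scale puts cognate at 1 and non-cognate at 0. Selection of Caulobacter ParB libraries, four specificity codons randomised, took place in E. coli USO with a HIS3 reporter, site 19 bp from the promoter, over 48 hours at 37°C on M9-minus-histidine with 0.1 mM IPTG and 5 mM 3-AT.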
QHYH was tested, and the “one-hybrid fitness for binding NBS DNA” value was ≤ 0.2. RIEP was tested, and the “one-hybrid fitness for binding NBS DNA” value was ≤ 0.2. QYYG was tested, and the “one-hybrid fitness for binding NBS DNA” value was ≤ 0.2. With KPER the “one-hybrid fitness for binding NBS DNA” value was ≤ 0.2. YKRC was tested, and the “one-hybrid fitness for binding NBS DNA” value was ≤ 0.2. For CLTR, the “one-hybrid fitness for binding NBS DNA” value was ≤ 0.2. With RQME the “one-hybrid fitness for binding NBS DNA” value was ≤ 0.2. With VCKC the “one-hybrid fitness for binding NBS DNA” value was ≤ 0.2. For EESG, the “one-hybrid fitness for binding NBS DNA” value was ≤ 0.2. RCPE was tested, and the “one-hybrid fitness for binding NBS DNA” value was ≤ 0.2. With AASW the “one-hybrid fitness for binding NBS DNA” value was ≤ 0.2. For TLYM, the “one-hybrid fitness for binding NBS DNA” value was ≤ 0.2. With HKKR the “one-hybrid fitness for binding NBS DNA” value was ≤ 0.2. In the case of NWKY, the “one-hybrid fitness for binding NBS DNA” value is reported as ≤ 0.2. For GSFH, the “one-hybrid fitness for binding NBS DNA” value was ≤ 0.2. In the case of DFYT, the “one-hybrid fitness for binding NBS DNA” value is reported as ≤ 0.2. With TYYS the “one-hybrid fitness for binding NBS DNA” value was ≤ 0.2. With HGPA the “one-hybrid fitness for binding NBS DNA” value was ≤ 0.2. In the case of NYRG, the “one-hybrid fitness for binding NBS DNA” value is reported as ≤ 0.2. With MSNM the “one-hybrid fitness for binding NBS DNA” value was ≤ 0.2. In the case of TCAL, the “one-hybrid fitness for binding NBS DNA” value is reported as ≤ 0.2. In the case of ESQG, the “one-hybrid fitness for binding NBS DNA” value is reported as ≤ 0.2. KHQE was tested, and the “one-hybrid fitness for binding NBS DNA” value was ≤ 0.2. For TTIG, the “one-hybrid fitness for binding NBS DNA” value was ≤ 0.2. In the case of IGSG, the “one-hybrid fitness for binding NBS DNA” value is reported as ≤ 0.2. For SNMT, the “one-hybrid fitness for binding NBS DNA” value was ≤ 0.2. In the case of FSYC, the “one-hybrid fitness for binding NBS DNA” value is reported as ≤ 0.2. With CWTQ the “one-hybrid fitness for binding NBS DNA” value was ≤ 0.2. For RTMW, the “one-hybrid fitness for binding NBS DNA” value was ≤ 0.2. DAGC was tested, and the “one-hybrid fitness for binding NBS DNA” value was ≤ 0.2. For IYHG, the “one-hybrid fitness for binding NBS DNA” value was ≤ 0.2. For RPVY, the “one-hybrid fitness for binding NBS DNA” value was ≤ 0.2. For NCCT, the “one-hybrid fitness for binding NBS DNA” value was ≤ 0.2. DTDV was tested, and the “one-hybrid fitness for binding NBS DNA” value was ≤ 0.2. For QMTI, the “one-hybrid fitness for binding NBS DNA” value was ≤ 0.2. PMAL was tested, and the “one-hybrid fitness for binding NBS DNA” value was ≤ 0.2. With RSSN the “one-hybrid fitness for binding NBS DNA” value was ≤ 0.2. In the case of RKQG, the “one-hybrid fitness for binding NBS DNA” value is reported as ≤ 0.2. With QSTK the “one-hybrid fitness for binding NBS DNA” value was ≤ 0.2. For PKVL, the “one-hybrid fitness for binding NBS DNA” value was ≤ 0.2. With CPCM the “one-hybrid fitness for binding NBS DNA” value was ≤ 0.2. NSYT was tested, and the “one-hybrid fitness for binding NBS DNA” value was ≤ 0.2. MPPT was tested, and the “one-hybrid fitness for binding NBS DNA” value was ≤ 0.2. YMLS was tested, and the “one-hybrid fitness for binding NBS DNA” value was ≤ 0.2. For RMRQ, the “one-hybrid fitness for binding NBS DNA” value was 0.238. With QNSK the “one-hybrid fitness for binding NBS DNA” value was ≤ 0.2. TAPR was tested, and the “one-hybrid fitness for binding NBS DNA” value was ≤ 0.2. For RCLD, the “one-hybrid fitness for binding NBS DNA” value was ≤ 0.2. With YDFC the “one-hybrid fitness for binding NBS DNA” value was ≤ 0.2. For TNML, the “one-hybrid fitness for binding NBS DNA” value was ≤ 0.2. In the case of RVNV, the “one-hybrid fitness for binding NBS DNA” value is reported as ≤ 0.2. In the case of TNDK, the “one-hybrid fitness for binding NBS DNA” value is reported as ≤ 0.2. QVPW was tested, and the “one-hybrid fitness for binding NBS DNA” value was ≤ 0.2. With DRGG the “one-hybrid fitness for binding NBS DNA” value was ≤ 0.2. For DVGS, the “one-hybrid fitness for binding NBS DNA” value was ≤ 0.2. In the case of RYEL, the “one-hybrid fitness for binding NBS DNA” value is reported as ≤ 0.2. For AHNC, the “one-hybrid fitness for binding NBS DNA” value was ≤ 0.2. For TPCR, the “one-hybrid fitness for binding NBS DNA” value was ≤ 0.2. With GRRM the “one-hybrid fitness for binding NBS DNA” value was ≤ 0.2. With TLPS the “one-hybrid fitness for binding NBS DNA” value was ≤ 0.2. NKQG was tested, and the “one-hybrid fitness for binding NBS DNA” value was ≤ 0.2. With DPVS the “one-hybrid fitness for binding NBS DNA” value was ≤ 0.2. In the case of GWSK, the “one-hybrid fitness for binding NBS DNA” value is reported as ≤ 0.2. AERL was tested, and the “one-hybrid fitness for binding NBS DNA” value was ≤ 0.2. EFKT was tested, and the “one-hybrid fitness for binding NBS DNA” value was ≤ 0.2. For SSEM, the “one-hybrid fitness for binding NBS DNA” value was ≤ 0.2. In the case of PIDQ, the “one-hybrid fitness for binding NBS DNA” value is reported as ≤ 0.2. For WFRR, the “one-hybrid fitness for binding NBS DNA” value was ≤ 0.2. KGST was tested, and the “one-hybrid fitness for binding NBS DNA” value was ≤ 0.2. For YIHR, the “one-hybrid fitness for binding NBS DNA” value was ≤ 0.2. With PQEW the “one-hybrid fitness for binding NBS DNA” value was ≤ 0.2. With PWPY the “one-hybrid fitness for binding NBS DNA” value was ≤ 0.2. TWSR was tested, and the “one-hybrid fitness for binding NBS DNA” value was ≤ 0.2. In the case of PRCL, the “one-hybrid fitness for binding NBS DNA” value is reported as ≤ 0.2. TYGV was tested, and the “one-hybrid fitness for binding NBS DNA” value was ≤ 0.2. With YDTQ the “one-hybrid fitness for binding NBS DNA” value was ≤ 0.2. IAET was tested, and the “one-hybrid fitness for binding NBS DNA” value was ≤ 0.2.
